This is an account of results in PMC4336329 (PLoS ONE, 2015).

Molecules are shown by their SMILES. The whole screen tested about 310,000 compounds, of which about 14,000 (4.5%) showed an effect of 50% or more. The effect is printed as a negative number. Some of the results follow.
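Further: peak tail current of the secondary pulse compared with the same well before compound.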

human ether-à-go-go-related gene (hERG) potassium channel, sequence (Q12809 whole entry, looked up): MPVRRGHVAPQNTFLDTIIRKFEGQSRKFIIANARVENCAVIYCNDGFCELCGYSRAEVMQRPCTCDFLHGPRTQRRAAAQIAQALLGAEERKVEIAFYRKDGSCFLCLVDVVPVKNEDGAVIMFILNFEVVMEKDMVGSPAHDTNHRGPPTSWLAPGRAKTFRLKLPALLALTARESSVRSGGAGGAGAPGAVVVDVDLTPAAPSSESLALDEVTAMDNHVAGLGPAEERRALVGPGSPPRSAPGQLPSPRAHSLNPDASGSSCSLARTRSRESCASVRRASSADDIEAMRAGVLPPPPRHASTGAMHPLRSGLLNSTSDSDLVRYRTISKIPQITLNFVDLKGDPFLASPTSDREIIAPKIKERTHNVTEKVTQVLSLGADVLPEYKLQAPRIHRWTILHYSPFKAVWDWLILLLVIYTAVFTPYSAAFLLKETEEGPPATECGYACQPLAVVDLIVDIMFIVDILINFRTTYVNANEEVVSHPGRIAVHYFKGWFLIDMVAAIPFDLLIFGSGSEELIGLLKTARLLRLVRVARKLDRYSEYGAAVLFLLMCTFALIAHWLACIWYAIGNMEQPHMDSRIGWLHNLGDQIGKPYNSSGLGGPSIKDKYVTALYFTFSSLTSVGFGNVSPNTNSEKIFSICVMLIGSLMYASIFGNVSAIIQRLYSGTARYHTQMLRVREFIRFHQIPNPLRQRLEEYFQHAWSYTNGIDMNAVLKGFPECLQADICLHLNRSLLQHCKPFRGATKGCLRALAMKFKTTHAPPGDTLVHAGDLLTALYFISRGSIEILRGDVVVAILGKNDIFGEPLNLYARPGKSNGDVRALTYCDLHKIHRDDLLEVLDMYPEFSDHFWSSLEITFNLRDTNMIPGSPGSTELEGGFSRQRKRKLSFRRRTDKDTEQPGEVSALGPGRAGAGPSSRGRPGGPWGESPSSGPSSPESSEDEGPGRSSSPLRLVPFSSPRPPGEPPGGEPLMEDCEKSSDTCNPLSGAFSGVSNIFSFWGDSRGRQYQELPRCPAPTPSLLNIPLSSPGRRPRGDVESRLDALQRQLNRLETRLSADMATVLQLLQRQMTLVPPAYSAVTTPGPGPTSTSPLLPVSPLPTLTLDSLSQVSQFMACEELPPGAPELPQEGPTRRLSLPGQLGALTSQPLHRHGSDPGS

The test has as its target human ether-à-go-go-related gene (hERG) potassium channel (human, UniProt Q12809). In words: primary screen, population patch clamp on CHO cells stably expressing hERG.
For the compound `COc1ccc(-n2c(=O)[nH]cc(C(=O)Nc3ccc4c(c3)OCO4)c2=O)cc1OC`, the “hERG current change (%, negative = inhibition) at 10uM” value is on record as 4.63%.
As for `CCOC(=O)N1CCN(C(=O)C2CCN(Cc3nc(-c4ccccc4C)oc3C)CC2)CC1`, the figure is -58.3%; as for `S=C(NCCN1CCOCC1)Nc1ccc(Cl)cc1Cl`, -18%.
As for `CC(=O)C(=Nc1ccccc1Cl)NNc1ccc(Cl)cc1`, the figure is 17.3%; as for `O=C(Cc1ccc(Cl)cc1)N/N=C/c1cccs1`, 13.9%; as for `COc1ccc(C2C(C(=O)c3ccco3)=C(O)C(=O)N2CCOCCO)cc1OC` (centres unmarked), 15%.
As for `Cc1noc(C)c1C(=O)Nc1nc(-c2ccccc2Cl)cs1`, the figure is -0.869%.
On to `c1cc2c(cc1-c1cnc3n1CCC3)OCCO2`, for which the “hERG current change (%, negative = inhibition) at 10uM” value is given as -25.5%.
On to `O=C(Nc1cccc(Br)c1)/C(=C\c1cccnc1)NC(=O)c1ccco1`, for which the “hERG current change (%, negative = inhibition) at 10uM” value is reported as -56.6%.
As for `COc1ccc(-c2c(-c3ccsc3)oc3ccc(N4CCOCC4)cc23)cc1`, the figure is -0.8%; as for `N#Cc1nc(-c2ccc(OCc3ccc(Cl)cc3)cc2)oc1NCCCn1ccnc1`, 5.77%.
As for `Cc1ccc(-n2c(Cc3cccc4ccccc34)n[nH]c2=S)c(C)c1`, the figure is 16.3%; as for `CC(C)(C)NC(=O)C(=O)N/N=C/c1ccc(F)cc1`, 7.3%.
In the case of `COc1ccc(OC)c(/C=N/NC(=O)C(O)c2ccccc2)c1` (centres unmarked), the “hERG current change (%, negative = inhibition) at 10uM” value was determined as 13.5%.
As for `O=C(N/N=C/c1ccccc1[N+](=O)[O-])c1ccc2nc[nH]c2c1`, the figure is 11.3%; as for `CC(=O)NCCNc1nc2c(-c3ccccc3)nnn2c2ccccc12`, 6.84%; as for `COC(=O)c1ccc(S(=O)(=O)NCc2ccc(OC)cc2)n1C`, -1.31%.
For `CCOc1c(Br)cc(C(=O)NCCCn2ccnc2)cc1OC`, the “hERG current change (%, negative = inhibition) at 10uM” value is 4.22%.
As for `CC(=O)Nc1ccc(C(=O)NCCCSc2ccccc2)cc1`, the figure is 10.2%; as for `c1ccc(OCCCCN2CCCCC2)cc1`, 1.35%; as for `COc1ccc(CC(=O)Nc2cccc(/C(C)=N/NC(=O)C3(C)CC3(Br)Br)c2)cc1` (centres unmarked), 6.31%.
As for `Cl.c1ccc(CCN=C2CCCc3c2[nH]c2ccccc32)cc1`, the figure is -73.2%.
As for `CCN1CCN(CC(=O)c2cc(Cl)ccc2Cl)CC1`, the figure is 21.9%; as for `Cc1cc(C)c(-c2cc(NC(=O)COC(=O)c3ccc(CO)cc3)n(-c3ccccc3)n2)cc1C`, 9.94%.
In the case of `O=C(CCn1cccc1)N1CCc2ccccc21`, the “hERG current change (%, negative = inhibition) at 10uM” value was 9.79%.
As for `CN1CCN(c2ncnc3c2[nH]c2ccc(F)cc23)CC1`, the figure is -14%; as for `COc1cc(/C=C2/NC(=O)N(Cc3ccccc3F)C2=O)cc(OC)c1O`, -25.2%; as for `Cn1nnnc1NCc1ccc(Cl)cc1`, 9.84%.
As for `CCN(CC(=O)Nc1ccc(OC)cc1)C(=O)CCS(=O)(=O)c1ccc(C)cc1`, the figure is -0.944%; as for `COc1ccccc1NC(=O)COc1cc(Br)c(CNCCCN2CCOCC2)cc1OC`, -54.6%; as for `Cc1cc(-c2n[nH]c(=S)n2/N=C/C=C/c2ccccc2)n[nH]1`, 6.76%.
Turning to `Cc1ccc(S(=O)(=O)N(C(=O)c2ccncc2)c2ccc3oc4c(c3c2)CCCC4)cc1[N+](=O)[O-]`, the “hERG current change (%, negative = inhibition) at 10uM” value stood at 20.9%.
As for `C=CCn1nnnc1SCC(=O)Nc1ccccc1C(=O)OC`, the figure is -14.2%; as for `Cc1ccccc1OCc1nc2ccccc2c(=O)n1/N=C/c1cccc([N+](=O)[O-])c1`, -0.947%; as for `Cc1ccc(/C=N/NC(=O)c2cc(-c3ccccc3)nc3ccccc23)o1`, 17.1%.
As for `CC1CCN(c2c(NCC3CCC(C(=O)NCc4ccc(F)cc4)CC3)c(=O)c2=O)CC1` (centres unmarked), the figure is -4%; as for `Clc1cc(Br)ccc1OCCCn1ccnc1`, -39.5%; as for `CCOc1cc(S(=O)(=O)NCc2ccccc2)c(OCC)cc1-n1cnnn1`, -14.3%.
As for `CCc1noc(C)c1C(=O)N(Cc1ccccc1)c1c(N)n(CCOC)c(=O)[nH]c1=O`, the figure is 8.37%; as for `C=CCn1c(C)nnc1SCC(=O)NC1CCCCC1`, 12.3%.
Turning to `Cc1ccc(C(=O)Cn2c(C(=O)/C=C/c3ccccc3)nc3ccccc32)cc1`, the “hERG current change (%, negative = inhibition) at 10uM” value is listed as -11.9%.
As for `CCOC(=O)CNC(=O)c1cnc(Nc2ccccc2OC)c2ccccc12`, the figure is 5.33%.
Consider `O=C(COc1ccccc1)Nc1ccc2[nH]ncc2c1`, for which the “hERG current change (%, negative = inhibition) at 10uM” value is -2.56%.
As for `COc1ccc(S(=O)(=O)NC(CC(=O)N2CCc3ccccc32)c2ccco2)cc1` (centres unmarked), the figure is -17.3%.
